Reference: a compilation of properties of binary mixtures (doi:10.1016/j.dib.2018.04.127)
The densities may have been worked out from excess volumes.

Experiment: xn = mol fraction of the nth substance listed
Conditions: 303.15 K, 100 kPa

Row | SMILES | mass density (x2 = 0.6131) [kg/m3] | mass density (x2 = 0.7001) [kg/m3] | mass density (x2 = 0.7502) [kg/m3] | mass density (x2 = 0.7993) [kg/m3] | mass density (x2 = 0.8498) [kg/m3] | mass density (x2 = 0.9501) [kg/m3] | mass density (x1 = 0.0099) [kg/m3] | mass density (x2 = 0.8986) [kg/m3] | mass density (x2 = 0.9199) [kg/m3] | mass density (x2 = 0.9602) [kg/m3] | mass density (x2 = 0.98) [kg/m3]
1 | CCCC(=O)OC(C)CCC (stereo unspecified) + CC(=O)[O-].CC[n+]1ccn(C)c1 | 1061.8 | 1068.8 | 1073 | 1077 | 1081.5 | 1090 |  |  |  |  | 
2 | CCCC(=O)OC(C)CCC (stereo unspecified) + CCCC[n+]1ccn(C)c1.COS(=O)(=O)[O-] |  |  |  |  |  |  | 1202.1 | 1183.8 | 1187.8 | 1195.8 | 1199.7
